The GI50 is the concentration that inhibits growth by half. The TGI is the concentration at which net growth stops.

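How tested: cells in 96-well plates exposed to compound for 48 hours at five concentrations. The concentration for 50% growth inhibition is given as GI50. TGI is the concentration that stops growth completely.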

The test system of this test is NCI-H322M lung. Put plainly: DTP human tumour cell line panel, 48 h.

`COCCOc1ccc2ncc(C#Cc3cncc(C(=O)Nc4ccc(CN5CCN(C)CC5)c(C(F)(F)F)c4)c3)n2n1`: the GI50 is 1010 nM and the TGI was 4700 nM.

Source of the values: PubChem BioAssay (NCI).
